# Measurements published in article PMC6919601, “Identification of Plasmodium dipeptidyl aminopeptidase allosteric inhibitors by high throughput screening” (PLoS ONE, 2019).
# About 230 (0.21%) of roughly 110,000 compounds showed an effect of 50% or more. Some of the results follow.
# Molecular target: DPAP1 (Plasmodium falciparum, UniProt Q8IIJ9)
# Test: primary screen, percent inhibition; read by cleavage of a fluorogenic dipeptide substrate; higher = more effect of the substance
# Parameters: species or system P. falciparum D10 trophozoite lysates; single well
# 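Also: 30 min substrate incubation versus DMSO and 10 µM JCP410 controls.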
# DPAP1, sequence (Q8IIJ9 whole entry, looked up): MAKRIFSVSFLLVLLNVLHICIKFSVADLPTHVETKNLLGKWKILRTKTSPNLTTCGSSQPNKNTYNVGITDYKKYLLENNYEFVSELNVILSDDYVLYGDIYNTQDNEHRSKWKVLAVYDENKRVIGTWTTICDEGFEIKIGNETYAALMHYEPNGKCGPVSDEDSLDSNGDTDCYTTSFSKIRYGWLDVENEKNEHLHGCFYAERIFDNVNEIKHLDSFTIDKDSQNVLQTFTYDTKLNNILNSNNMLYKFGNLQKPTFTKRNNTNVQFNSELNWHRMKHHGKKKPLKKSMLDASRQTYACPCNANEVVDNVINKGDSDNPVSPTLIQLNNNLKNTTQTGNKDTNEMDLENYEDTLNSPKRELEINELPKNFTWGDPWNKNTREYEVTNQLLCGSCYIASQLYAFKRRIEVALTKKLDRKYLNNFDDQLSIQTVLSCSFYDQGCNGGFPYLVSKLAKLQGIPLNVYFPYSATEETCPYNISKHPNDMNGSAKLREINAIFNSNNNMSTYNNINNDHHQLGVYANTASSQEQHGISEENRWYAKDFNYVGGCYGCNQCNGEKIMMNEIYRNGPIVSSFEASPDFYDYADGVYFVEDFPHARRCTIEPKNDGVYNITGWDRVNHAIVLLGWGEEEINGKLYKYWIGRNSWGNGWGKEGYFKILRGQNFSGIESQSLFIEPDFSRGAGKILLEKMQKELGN
row,SMILES,% Inhibition @ 10 uM
1,Cc1ccc(C)c(N(CC(=O)Nc2cccc(N(C)S(C)(=O)=O)c2)S(C)(=O)=O)c1,-1.24%
2,O=C(NC1CCN(Cc2ccccc2)CC1)C1CCN(S(=O)(=O)c2cccc3cccnc23)CC1,-1.54%
3,CC(C)CNS(=O)(=O)c1ccc(CCC(=O)Nc2cccc(C(F)(F)F)c2)cc1,-2.8%
4,Fc1cccc(Cl)c1Cn1ncc2ccccc21,0.00706%
5,O=S(=O)(c1ccc(Cl)cc1)N1CCN(c2cccc(Cl)c2)CC1,-1.62%
6,COc1cccc(OCCCc2c(C)n[nH]c2C)c1,1.9%
7,CCOC(=O)N1CCN(c2c(-c3ccc(Cl)cc3)c(=O)c2=O)CC1,-3.84%
8,COc1ccc(CN(C(=O)c2cc(=O)c3cc(C)cc(C)c3o2)C2CCS(=O)(=O)C2)cc1 (stereo not shown),5.06%
9,CC1CC(C)CN(Cc2nc3c(c(=O)n(C)c(=O)n3C)n2Cc2c(F)cccc2Cl)C1 (stereo not shown),-2.52%
10,CN(CCCNC(=O)Cn1ncc2c(=O)oc3ccccc3c21)Cc1ccccc1,5.58%
11,COc1ccc(/C=C2\N=C(c3ccc(F)cc3)OC2=O)c(OC)c1,-5.41%
12,COc1ccc(CN(C(=O)COc2ccc(C)c(C)c2)C2CCS(=O)(=O)C2)cc1OC (stereo not shown),2.1%
13,CC1=CC2=NC(=O)/C(=C\c3ccc(C)o3)C(=N)N2O1,3.63%
14,Cc1ccc2c(CN(C)Cc3ccccc3)cc(=O)oc2c1,-3.49%
15,COC(=O)c1cc(-c2ccccc2)nc2ccc(C)cc12,-1.46%
16,O=c1c2sc3ccccc3c2n(Cc2ccccc2F)c(=O)n1Cc1ccco1,-2.92%
17,Cc1ccc(C2CC(C(F)(F)F)n3ncc(C(=O)N4CCN(c5ccccc5)CC4)c3N2)cc1 (stereo not shown),2.53%
18,CC1CCCCN1S(=O)(=O)c1ccc(NC(=O)c2ccc(C(C)(C)C)cc2)cc1 (stereo not shown),0.0152%
19,Cc1ccccc1NC1(C#N)C(=O)Nc2ccccc21 (stereo not shown),-7.09%
20,c1cncc(-c2nc(-c3c[nH]c4ccccc34)cs2)c1,2.51%
21,O=c1/c(=C/c2cccs2)sc2nc(-c3ccccc3Br)nn12,0.561%
22,COc1ccc(CCC(=O)Nc2ccc(C)cc2)cc1,-1.44%
23,O=C(Nc1c2c(nn1-c1cccc(Cl)c1)CS(=O)(=O)C2)c1c(F)cccc1F,4.23%
24,Cc1cc(-c2noc(Cc3ccccc3)n2)c2ccccc2n1,-0.403%
25,CCOc1ccc2nc(N3CCC(C(=O)N4CCN(C(=O)c5ccco5)CC4)CC3)sc2c1,3.4%

row,SMILES,% Inhibition @ 10 uM
1,CCCn1c2ccccc2c2cnn(CC(=O)NCCCOC)c(=O)c21,3.95%
2,CCOC(=O)c1c(N)sc2c1CCC1(CCCCC1)C2,2.4%
3,Cc1cccn2c(=O)c(/C=C(\C#N)C(=O)N3CCOCC3)c(Oc3ccc(C(C)(C)C)cc3)nc12,2%
4,CCC(CC)C(=O)Nc1ccc(N(CC)CC)cc1,0.361%
5,CC(C)(C)C(=O)NCCCc1nc2ccccc2n1Cc1ccccc1F,4.77%
6,O=C(Nc1cc(C(F)(F)F)ccc1Cl)C1CC(=O)N(c2ccc(Br)cc2)C1 (stereo not shown),-12.1%
7,O=C(CN(Cc1ccccc1)S(=O)(=O)c1ccc2c(c1)OCCO2)Nc1ccc2c(c1)OCCO2,-4.39%
8,CCOc1cc(CNCc2c(C(=O)O)[nH]c3cc(OC)ccc23)ccc1OC,3.38%
9,COc1ccc(Cc2nn3c(Cc4ccccc4)nnc3s2)cc1,3.38%
10,COCC(C)NC1Cc2ccccc2C1 (stereo not shown),4.75%
11,CC(C)=C1C2C=CC1C1C(=O)N(c3cccc(C(=O)O)c3)C(=O)C21 (stereo not shown),-2.56%
12,CC(Cc1ccccc1F)N1CCC(N2CCCCC2)CC1 (stereo not shown),-6.62%
13,Cc1cccnc1NCc1ccc(O)c2ncccc12,-15.4%
14,CCC(C)(CC)C(O)(C#CCN1CCCCC1)c1ccccc1 (stereo not shown),-5.78%
15,COc1cc2c(cc1OC)CN(S(=O)(=O)c1cccc(F)c1)CC2,-0.123%
16,CCn1c(-c2cccc(Br)c2)nc2ccccc21,-4.07%
17,COc1ccc(-c2cc(-c3ccccc3)nc3sc(C(=O)NCC4CCCO4)c(N)c23)cc1 (stereo not shown),19%
18,CC(=O)Nc1ccc(NC(=O)CNS(=O)(=O)c2c(C)cc(C)cc2C)cc1,3.89%
19,Cc1cnc(NC(=O)c2sc3cc(Cl)ccc3c2Cl)s1,-0.413%
20,C=CCC(C)(C)NC(C)c1ccccc1 (stereo not shown),0.385%
21,COc1ccc2sc(N(CCN(C)C)C(C)=O)nc2c1,-4.44%
22,COc1cc(/C=C/C(=O)c2ccc(-c3ccccc3)cc2)c([N+](=O)[O-])cc1OC,0.937%
23,CCC(NC(=O)[C@@H](C[C@H](C)c1ccccc1)NC(=O)c1ccc(-c2ccccc2Cl)cc1)C(=O)c1nc2ncccc2o1 (stereo partly shown),-1.82%
24,COc1cccc(C2=CC(c3ccccc3C)n3ncnc3N2)c1 (stereo not shown),-1.62%
25,CCN1CNC(=S)N(C(C)c2ccccc2)C1 (stereo not shown),-5.62%

row,SMILES,% Inhibition @ 10 uM
1,O=S(=O)(c1ccc(Br)c2nsnc12)N1CCCCC1,2.58%
2,O=C(CSc1ccc2nnc(CCNS(=O)(=O)c3ccccc3)n2n1)NCc1ccccc1,2.22%
3,CCCc1nc2nc(C)c(N)c(O)n2n1,-2.78%
4,CC(NC(=O)C(C)n1sc2ccccc2c1=O)c1ccc2c(c1)OCCO2 (stereo not shown),3.39%
5,O=C(Cc1ccc(Cl)cc1)NCc1ccc2c(c1)OCO2,-0.641%
6,Cc1nn(CC(=O)NCC2CCCO2)c(=O)c2nn(-c3ccccc3)c(C)c12 (stereo not shown),5.3%
7,COCc1cccc(NC(=O)Cn2cnc3c(=O)n(C)c(=O)n(C)c32)c1,-8.43%
8,CCC(C)c1ccccc1OCC(=O)Nc1cccc(C#N)c1 (stereo not shown),-3.72%
9,CCOC(=O)N1CCC(NC(=O)C(Cc2ccccc2)NC(=O)c2ccco2)CC1 (stereo not shown),5.65%
10,COc1ccc(C2OC(c3ccc(S(=O)(=O)N4CCCCC4)cc3)=NN2C(C)=O)cc1 (stereo not shown),-3.64%
11,N#CC1=C(N)OC2=C(C(=O)CCC2)C1c1c(F)cccc1Cl (stereo not shown),-2.53%
12,CN1C(=O)C(=Cc2cccn2-c2ccc(Cl)cc2)C(=O)N(C)C1=O,-6.6%
13,CC1(C)CC(NC(=O)CN2CCCCC2)CC(C)(C)N1,0.162%
14,O=C(CSc1nccn1Cc1ccccc1)Nc1nccs1,1.57%
15,CCCCOc1ccc(CN2CCSCC2)cc1,-5.42%
16,Cc1ccnc(NC(=O)c2cc3c(Cl)nc4ccccc4c3s2)c1,2.5%
17,CC(=O)NC(C)Cc1cn(Cc2ccccc2)c2ccccc12 (stereo not shown),-3.5%
18,O=C(O)c1ccc(S(=O)(=O)Nc2cccnc2)cc1,-9.16%
19,Cc1ccc(OCC(=O)Nc2ccc(Br)c(C)n2)cc1C,0.605%
20,CC(Cc1cccc(C(F)(F)F)c1)NCC(C)(C)CN(C)C (stereo not shown),1.57%
21,Cc1ccc(C(=O)NC2CCCCC2)cc1S(=O)(=O)N1CCOCC1,-4.27%
22,Cc1cccc(OCC(=O)Nc2cccc(Cl)c2)c1,12.7%
23,Oc1cc2ccccc2cc1-c1nc2c3c4c(sc3ncn2n1)CCCC4,9.39%
24,Cc1ccc(C(=O)O)cc1/N=C/c1c(C)nn(-c2ccc(Cl)cc2)c1O,4.01%
25,Cc1ccc(S(=O)(=O)NC(=O)Nc2ccc(C)cc2C)cc1,-3.25%

row,SMILES,% Inhibition @ 10 uM
1,COc1ccc(Br)cc1CNCc1ccc2c(c1)OCO2,-4.16%
2,Cc1ccc(NC(=O)c2ccncc2)c(NC(=O)c2ccncc2)c1,-3.47%
3,Cc1ccc(C(=O)c2cn(CC(=O)NC3CCCC3)c3nc(C)ccc3c2=O)cc1,-2.07%
4,COc1ccc(-c2cc(C(F)(F)F)nc(SCC(=O)N3CC(C)OC(C)C3)n2)cc1OC (stereo not shown),32.3%
5,CC1CC(C)C(=O)N(c2ccccc2)C1=O (stereo not shown),0.389%
6,O=[N+]([O-])c1ccc(SCCc2ccccn2)cc1,0.989%
7,COc1ccc(/C(O)=C/C2=NCC3c4ccccc4CCN3C2=O)cc1 (stereo not shown),-0.68%
8,CCN1CCCC1CNC(=O)Cn1nc(C)n2c(cc3c(OC)cccc32)c1=O (stereo not shown),-5.32%
9,CC1CC(C)CN(C(=O)C2CCC(CNS(=O)(=O)c3ccc(Cl)cc3)CC2)C1 (stereo not shown),2.35%
10,O=C(c1cc(-c2ccco2)on1)N1CCc2ccccc2C1,-1.21%
11,CCCN1C(=O)S/C(=C\c2c(NCC)nc3ccccn3c2=O)C1=O,-2.98%
12,CCOc1ccc2nc(N3CCC(C(=O)NCC4CCCO4)CC3)sc2c1 (stereo not shown),3.4%
13,COc1ccc(S(=O)(=O)N2CCN(c3ccc(C)cc3C)CC2)cc1,-4.33%
14,c1ccc(CC2CCN(Cc3nnc(-c4ccc5c(c4)OCO5)o3)CC2)cc1,-0.0709%
15,COc1ccc(CCN2/C(=N/C(C)=O)SC3CS(=O)(=O)CC32)cc1 (stereo not shown),-1.15%
16,COC(=O)c1c(C)n(Cc2ccccc2)c2ccc(O)cc12,2.95%
17,N#Cc1ccccc1NC(=O)c1ccc(N2C(=O)c3ccccc3C2=O)cc1,-1.93%
18,C=CCn1c(-c2ccccc2)cs/c1=N\c1ccc(OC)cc1,8.06%
19,CCCCN(CC)CCCNC(=O)NCc1noc2ccc(C)cc12,4.25%
20,Cc1ccccc1C(=O)Nc1ccc(S(=O)(=O)N2CCCCC2)cc1,3.8%
21,COc1ccc2c(CNCc3cccc(Cl)c3)c(C(=O)O)n(Cc3ccccc3C)c2c1,2%
22,CCN1C(=O)/C(=C\c2ccc3c(c2)OCO3)C(C(=O)OC)=C1C,-1.32%
23,C/C=C(\C)CN1CCN(c2cccc(Cl)c2)CC1,1.88%
24,Fc1nc(F)c(F)c(-n2c(C(F)(F)F)nc3ccccc32)c1F,4.66%
25,COc1ccc(OC)c(N(CC(=O)Nc2ccccc2F)S(=O)(=O)c2ccccc2)c1,5.04%
